Laboratory results from PubChem BioAssay (Tox21).
“And” between values parts separate entries of the source, which are not always exact repeats. Equal values may be shown once. This list was built around the results that the source calls inconclusive (neither active nor inactive); the mix of calls is not that of the screen. Potencies of inconclusive entries are doubtful fits and often do not repeat. Some structures have more than one record in an assay (separate samples or runs), and their calls can disagree. The source made the active and inactive calls. Unless noted, calls come from the whole dose curve; as a rule, active = well fitted curve in the direction sought with a large enough effect in the repeat runs; inconclusive = weak or mixed curves; inactive = no such curve, though single readings can be large; an effect the other way counts as inactive or inconclusive.

Columns and labels:
[1] = qHTS assay to identify small molecule agonists of H2AX (AID 1224845; active = well fitted activation curve with a large enough effect in the signal ratio in the repeat runs, not every such curve was filed as active; inconclusive = weak or mixed curves; the % refers to the signal ratio; for activation (H2AX phosphorylation): % is set by controls: 0 for no effect and ±100 for the full control effect); settings: CHO-K1 phospho-H2AX Ser139 HTRF, 3 h; activation (H2AX phosphorylation): at 154 µM (top of the series) unless noted
Procedure, shortened: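 Wild-type CHO-K1 cells, plated overnight, exposed 3hr at 37C to 15 concentrations (0.76% DMSO final). Lysed, then HTRF anti-pH2AX (S139) cryptate and anti-H2AX-d2 antibodies, 24 hr room temperature; 665/620 nm emission read.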

[2] = qHTS assay to identify small molecule agonists of H2AX - cell viability counter screen (AID 1224847; calls by dose curve; note: nearly all actives have a fitted effect of over 30% in size)
Procedure, shortened: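 Read-out: CellTiter-Glo luminescence, 30 min RT. Cells: wild-type CHO-K1, 1000/well, 10% FBS, plated overnight at 37C. Treatment: 15 concentrations, 3 hr, 37C, 0.76% DMSO.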

[3] = qHTS RealTime-Glo MT Cell Viability Assay in HEK293 cells - 32 hour (AID 1224868); note: nearly all actives have a fitted effect of over 50% in size
Procedure, shortened: (§1)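 Viability tracked continuously by luminescence as live cells reduce a prosubstrate for NanoLuc; HEK293 cells preincubated 5 h, compound-treated at 37 C, and read at 0, 8, 16, 24, 32 and 40 h.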

[4] = qHTS RealTime-Glo MT Cell Viability Assay in HEK293 cells - 40 hour (AID 1224874); settings: RealTime-Glo luminescence; max response: stronger effect = lower value; note: nearly all actives have a fitted effect of over 50% in size
Procedure, shortened: (§2)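 qHTS format; HEK293 cells with NanoLuc/prosubstrate reagent, 37 C/5% CO2 for 5 h pre-dosing; compounds 23 nL in DMSO; luminescence at each time point reflects viable cells.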

[5] = qHTS RealTime-Glo MT Cell Viability Assay in HepG2 cells - 24 hour (AID 1224867); note: nearly all actives have a fitted effect of over 50% in size
Procedure, shortened: (§3)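 Viability was tracked continuously by NanoLuc luminescence from prosubstrate reduced by living HepG2 cells, at successive time points over 40 h of compound exposure. Cells with reagent were preincubated 5 h at 37 °C before compound addition.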

[6] = qHTS RealTime-Glo MT Cell Viability Assay in HEK293 cells - 16 hour (AID 1224872); note: nearly all actives have a fitted effect of over 50% in size
Procedure, shortened: as §1

[7] = A CellTox Green Cytotoxicity Assay to monitor cytotoxicity in HEK293 cells - 24 hour (AID 1224875); note: nearly all actives have a fitted effect of over 45% in size
Procedure, shortened: (§4)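 Each value comes from one timepoint of a single continuous run in which HEK293 cells with CellTox Green were exposed to compound for up to 40 h at 37 C, dye fluorescence rising with cell death.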

[8] = A CellTox Green Cytotoxicity Assay to monitor cytotoxicity in HepG2 cells - 24 hour (AID 1224878); note: nearly all actives have a fitted effect of over 45% in size
Procedure, shortened: (§5)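 Continuous culture of HepG2 cells with a membrane-impermeant DNA dye; rising fluorescence marks dead cells. Compound exposure lasted up to 40 h at 37 C, with reads every 8 h from 0 h.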

[9] = A CellTox Green Cytotoxicity Assay to monitor cytotoxicity in HepG2 cells - 40 hour (AID 1224879); note: nearly all actives have a fitted effect of over 40% in size
Procedure, shortened: as §5

[10] = A CellTox Green Cytotoxicity Assay to monitor cytotoxicity in HEK293 cells - 32 hour (AID 1224881); note: nearly all actives have a fitted effect of over 40% in size
Procedure, shortened: as §4

[11] = A CellTox Green Cytotoxicity Assay to monitor cytotoxicity in HepG2 cells - 16 hour (AID 1224876); note: nearly all actives have a fitted effect of over 45% in size
Procedure, shortened: as §5

[12] = A CellTox Green Cytotoxicity Assay to monitor cytotoxicity in HEK293 cells - 40 hour (AID 1224871); note: nearly all actives have a fitted effect of over 45% in size
Procedure, shortened: as §4

[13] = qHTS RealTime-Glo MT Cell Viability Assay in HEK293 cells - 0 hour (AID 1224880); note: nearly all actives have a fitted effect of over 45% in size
Procedure, shortened: as §2

[14] = qHTS RealTime-Glo MT Cell Viability Assay in HepG2 cells - 32 hour (AID 1224877); note: nearly all actives have a fitted effect of over 55% in size
Procedure, shortened: as §3

[15] = qHTS RealTime-Glo MT Cell Viability Assay in HepG2 cells - 40 hour (AID 1224870); note: nearly all actives have a fitted effect of over 50% in size
Procedure, shortened: (§6)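 HepG2 cells (600/well) mixed with RealTime-Glo MT reagent, settled 5 h at 37 C/5% CO2 before compound addition. Nonlytic NanoLuc luminescence from viable-cell prosubstrate reduction read repeatedly during 40 h treatment at 37 C.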

[16] = qHTS RealTime-Glo MT Cell Viability Assay in HepG2 cells - 8 hour (AID 1224873); note: nearly all actives have a fitted effect of over 55% in size
Procedure, shortened: as §6
Potency is the fitted concentration of half-maximal effect; tags give direction and shape of the fitted curve or compound fluorescence and quenching.

## COc1ccccc1/C=C/C=O
[1]
  Potency: inconclusive: 103 µM [activator]
[2]
  Potency: inactive
[3]
  Potency: inconclusive: 25.2 µM [rising, partial curve] and inconclusive: 21.9 µM [rising, partial curve]
[4]
  Potency: inconclusive: 40 µM [rising, partial curve] and inconclusive: 21.9 µM [rising, partial curve]

## C=CC(=O)OCCOCCOCCOCCOC(=O)C=C
[1]
  Potency: active: 50.8 µM and active: 50 µM
[2]
  Potency: inconclusive: 90.3 µM [rising, partial curve] and inconclusive: 56.1 µM [rising, partial curve]
[5]
  Potency: inconclusive: 55.2 µM [falling, single point]
[6]
  Potency: inconclusive: 34.8 µM [cytotoxic, partial curve] and active: 43.2 µM
[7]
  Potency: inconclusive: 55.2 µM [activator, single point]
[8]
  Potency: inconclusive: 43.9 µM [activator, partial curve]
[9]
  Potency: active: 24.7 µM and active: 13.7 µM
[10]
  Potency: inconclusive: 55.2 µM [activator, single point] and active: 54.4 µM

## CCc1cc(SCc2sc(-c3ccc(C(F)(F)F)cc3)nc2CN2CCN(c3ccc(OC)cc3)CC2)ccc1OCC(=O)O
[1]
  Potency: active: 50.5 µM
[2]
  Potency: active: 89.8 µM
[5]
  Potency: inconclusive: 54.9 µM [falling, partial curve, poor fit]
[7]
  Potency: inconclusive: 54.9 µM [activator, partial curve, poor fit]
[9]
  Potency: inconclusive: 61.6 µM [activator, single point]
[10]
  Potency: inconclusive: 54.9 µM [activator, single point]

## CCCCCCCCCCCCc1ccccc1O
[1]
  Potency: active: 55.9 µM and active: 40.1 µM
[2]
  Potency: active: 55.9 µM and active: 40.1 µM
[5]
  Potency: active: 38.9 µM
[6]
  Potency: active: 43.1 µM and active: 43.6 µM
[11]
  Potency: active: 21.9 µM
[8]
  Potency: inconclusive: 43.1 µM [activator, partial curve, poor fit]

## O=C(O)c1cccnc1
[1]
  Potency: inactive
[2]
  Potency: inconclusive: 1.79 µM [cytotoxic, single point]
[3]
  Potency: inactive

## Cc1c(C)c2c(c(C)c1O)CCC(C)(COc1ccc(CC3SC(=O)NC3=O)cc1)O2 (stereo unspecified)
[1]
  Potency: inconclusive: 127 µM [activator]
[2]
  Potency: inconclusive: 17.9 µM [cytotoxic, single point]
[6]
  Potency: inconclusive: 10.7 µM [cytotoxic, partial curve]
[4]
  Potency: inconclusive: 9.52 µM [cytotoxic, partial curve]
[11]
  Potency: inconclusive: 43.6 µM [activator, partial curve, poor fit]
[8]
  Potency: inconclusive: 54.9 µM [activator, single point]
[9]
  Potency: inconclusive: 54.9 µM [activator, single point]

## Oc1ccc(Cl)cc1Cc1cc(Cl)ccc1O
[1]
  Potency: inconclusive: 115 µM [inhibitor, partial curve, poor fit]
[2]
  Potency: inconclusive: 0.875 µM [cytotoxic, partial curve]
[5]
  Potency: inconclusive: 22.3 µM [falling, partial curve] and inconclusive: 43.6 µM [falling, partial curve] and inconclusive: 13.4 µM [falling, partial curve]
[3]
  Potency: inconclusive: 19 µM [cytotoxic, partial curve]
[12]
  Potency: inconclusive: 55.9 µM [activator, single point]
[6]
  Potency: active: 22.3 µM and inconclusive: 49 µM [cytotoxic, partial curve] and inconclusive: 19 µM [cytotoxic, partial curve]
[4]
  Potency: active: 17.7 µM and active: 43.6 µM and active: 16.9 µM
[7]
  Potency: inconclusive: 55.9 µM [activator, single point]
[11]
  Potency: inconclusive: 54.9 µM [activator, single point]
[8]
  Potency: inconclusive: 55.9 µM [activator, single point] and inconclusive: 54.9 µM [activator, single point]
[9]
  Potency: inconclusive: 55.9 µM [activator, single point] and inconclusive: 54.9 µM [activator, single point]
[13]
  Potency: inactive
[10]
  Potency: inconclusive: 55.9 µM [activator, single point]

## CC(=O)Nc1ccc(C(=O)CCl)cc1
[1]
  Potency: inconclusive: 80 µM [falling, partial curve]
[2]
  Potency: inconclusive: 101 µM [rising, partial curve]
[5]
  Potency: inconclusive: 21.9 µM [falling, full curve]
[3]
  Potency: active: 24.5 µM
[6]
  Potency: active: 13.8 µM
[14]
  Potency: active: 21.9 µM

## NC1(c2ccc(-c3nc4ccn5c(=O)[nH]nc5c4cc3-c3ccccc3)cc2)CCC1
[1]
  Potency: inconclusive: 55.2 µM [activator, single point]
[2]
  Potency: inconclusive: 55.2 µM [cytotoxic, single point]
[5]
  Potency: active: 23.9 µM
[3]
  Potency: active: 1.9 µM
[15]
  Potency: inconclusive: 26.8 µM [falling, single point]
[12]
  Potency: active: 26.8 µM
[6]
  Potency: active: 6.01 µM
[16]
  Potency: inconclusive: 26.8 µM [falling, partial curve, poor fit]
[7]
  Potency: inconclusive: 26.8 µM [activator, single point]
[11]
  Potency: inconclusive: 26.8 µM [activator, single point]
[8]
  Potency: inconclusive: 26.8 µM [activator, single point]
[10]
  Potency: inconclusive: 26.8 µM [activator, single point]

## CCCSS/C(CCO)=C(\C)N(C=O)Cc1cnc(C)nc1N
[1]
  activation (H2AX phosphorylation): inconclusive: 11.5% [at 70.9 µM]
[2]
  Potency: inconclusive: 55.2 µM
[5]
  Potency: inconclusive: 21.3 µM [falling, single point]
[3]
  Potency: inconclusive: 26.8 µM [cytotoxic, single point]
[15]
  Potency: inconclusive: 26.8 µM [falling, single point]
[6]
  Potency: inconclusive: 23.9 µM [cytotoxic, single point]
[4]
  Potency: inconclusive: 26.8 µM [cytotoxic, single point]
[14]
  Potency: inconclusive: 23.9 µM [cytotoxic, single point]

## CCCCCN=C(N)N/N=C/c1c[nH]c2ccc(OC)cc12
[1]
  Potency: inconclusive: 61.9 µM [inhibitor]
[2]
  Potency: active: 49.2 µM
[12]
  Potency: active: 6.74 µM
[4]
  Potency: active: 4.25 µM
[11]
  Potency: active: 6.74 µM
[8]
  Potency: active: 5.35 µM
[13]
  Potency: inconclusive: 21.3 µM [rising, partial curve]
[10]
  Potency: active: 6.01 µM

## CN(C)C(=O)C1(N2CCCCC2)CCN(CC[C@@]2(c3ccc(Cl)c(Cl)c3)CN(C(=O)c3ccccc3)CCO2)CC1
[1]
  Potency: active: 47.2 µM
[2]
  Potency: active: 52.9 µM
[5]
  Potency: active: 20.4 µM
[15]
  Potency: active: 18.2 µM
[4]
  Potency: active: 11.5 µM
[8]
  Potency: active: 20.4 µM
[10]
  Potency: active: 32.4 µM

## CC(C)(C)c1ccc(O)c(C(C)(C)C)c1
[1]
  Potency: inconclusive: 113 µM [activator] and inconclusive: 127 µM [activator, single point]
[2]
  Potency: inconclusive: 113 µM [cytotoxic, single point]
[15]
  Potency: inconclusive: 49 µM [falling, single point]
[6]
  Potency: active: 34.5 µM and inconclusive: 24.5 µM [cytotoxic, full curve]
[7]
  Potency: active: 21.8 µM and active: 34.7 µM
[10]
  Potency: active: 24.4 µM and active: 34.7 µM

## CN(C)CCC=C1c2ccccc2CCc2ccccc21
[1]
  Potency: inconclusive: 127 µM [activator, single point]
[2]
  Potency: inconclusive: 113 µM [cytotoxic] and active: 113 µM
[5]
  Potency: active: 43.6 µM
[3]
  Potency: inconclusive: 55 µM [cytotoxic, single point] and inconclusive: 54.9 µM [cytotoxic, partial curve, poor fit] and inconclusive: 21.3 µM [cytotoxic, partial curve, poor fit]
[12]
  Potency: inconclusive: 55 µM [activator, single point] and inconclusive: 54.9 µM [activator, single point]
[6]
  Potency: inconclusive: 61.7 µM [cytotoxic, single point]
[4]
  Potency: inconclusive: 55 µM [cytotoxic, single point] and inconclusive: 54.9 µM [cytotoxic, partial curve, poor fit] and inconclusive: 26.8 µM [cytotoxic, single point]
[7]
  Potency: inconclusive: 55 µM [activator, single point] and inconclusive: 54.9 µM [activator, single point]
[11]
  Potency: inconclusive: 55 µM [activator, single point] and inconclusive: 21.3 µM [activator, partial curve]
[8]
  Potency: inconclusive: 55 µM [activator, single point] and active: 38.9 µM and active: 23.9 µM
[13]
  Potency: inconclusive: 24.5 µM [rising, partial curve] and inconclusive: 21.9 µM [rising, partial curve] and inconclusive: 10.7 µM [rising, partial curve]
[10]
  Potency: inconclusive: 55 µM [activator, single point] and inconclusive: 54.9 µM [activator, single point]

## O=C(c1cc(O)c(O)c(O)c1)c1ccc(O)c(O)c1O
[1]
  Potency: inconclusive: 7.11 µM [cytotoxic, full curve] and inconclusive: 2.84 µM [cytotoxic, full curve] and inconclusive: 2.77 µM [cytotoxic, full curve]
[2]
  Potency: inconclusive: 126 µM [cytotoxic, partial curve, poor fit]
[3]
  Potency: inconclusive: 61.7 µM [cytotoxic, single point]
[6]
  Potency: inconclusive: 19.5 µM [cytotoxic, partial curve, poor fit]
[14]
  Potency: inactive and inconclusive: 61.7 µM [cytotoxic, partial curve, poor fit] and inconclusive: 26.8 µM [cytotoxic, partial curve, poor fit]
